For assay [1], the target named is T1, soluble human FcRn (human, UniProt P55899 fragment; P61769 fragment).
T1 construct: Heterodimer of alpha chain and beta2-microglobulin; also called hFcRn
Nature of the assay: SPR (Biacore), pH 7.0, 25 C. (In general: Surface plasmon resonance follows binding to a sensor surface in real time, without labels.)

Assay [2] deals with T2, soluble human FcRn (human, UniProt P55899 fragment; P61769 fragment).
T2 construct: Heterodimer of FcRn alpha chain and beta2-microglobulin; also called hFcRn
Nature of the assay: SPR (Biacore T100), antibody captured by protein L, hFcRn as analyte, pH 7.0, 25 C.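 Note: KD calculated from fitted association and dissociation rate constants of the sensorgrams, protein L amine-coupled to the sensor chip, sodium phosphate running buffer with NaCl and Tween20.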

One may read the Kd as the concentration at which binding is half-saturated. A low value points to a tighter complex.

B1: IgG1-F1410 (antibody)
heavy: QVQLQESGPGLVKPSETLSLTCAVSGHSISHDHAWSWVRQPPGEGLEWIGFISYSGITNYNPSLQGRVTISRDNSKNTLYLQMNSLRAEDTAVYYCARSLARTTAMDYWGEGTLVTVSS[gap - human IgG1 constant region with V308P I332V (EU numbers)]
light: DIQMTQSPSSLSASVGDRVTITCRASQDISSYLNWYQQKPGKAPKLLIYYTSRLHSGVPSRFSGSGSGTDFTFTISSLQPEDIATYYCQQGNTLPYTFGQGTKVEIKRTVAAPSVFIFPPSDEQLKSGTASVVCLLNNFYPREAKVQWKVDNALQSGNSQESVTEQDSKDSTYSLSSTLTLSKADYEKHKVYACEVTHQGLSSPVTKSFNRGEC
The molecule B1 registered a Kd in assay [1] of 1.9 µM. This lies in the single-digit micromolar range.

B2: IgG1-F1159 (antibody)
heavy: QVQLQESGPGLVKPSETLSLTCAVSGHSISHDHAWSWVRQPPGEGLEWIGFISYSGITNYNPSLQGRVTISRDNSKNTLYLQMNSLRAEDTAVYYCARSLARTTAMDYWGEGTLVTVSS[gap - human IgG1 constant region with S424N N434W (EU numbers)]
light: B1 light
notes: EU numbering; copies: 2 + 2
Molecule B2 showed a dissociation constant (Kd) in assay [2] of 0.48 µM.

The record behind these values is patent US20140363428A1 (Chugai, published 2014).
